Assay results as given in patent US20240279296A1 (YUHAN, published 2024).

Biological target: T1, human β-klotho (human, UniProt Q86Z14 1-1044)
T1 sequence (looked up): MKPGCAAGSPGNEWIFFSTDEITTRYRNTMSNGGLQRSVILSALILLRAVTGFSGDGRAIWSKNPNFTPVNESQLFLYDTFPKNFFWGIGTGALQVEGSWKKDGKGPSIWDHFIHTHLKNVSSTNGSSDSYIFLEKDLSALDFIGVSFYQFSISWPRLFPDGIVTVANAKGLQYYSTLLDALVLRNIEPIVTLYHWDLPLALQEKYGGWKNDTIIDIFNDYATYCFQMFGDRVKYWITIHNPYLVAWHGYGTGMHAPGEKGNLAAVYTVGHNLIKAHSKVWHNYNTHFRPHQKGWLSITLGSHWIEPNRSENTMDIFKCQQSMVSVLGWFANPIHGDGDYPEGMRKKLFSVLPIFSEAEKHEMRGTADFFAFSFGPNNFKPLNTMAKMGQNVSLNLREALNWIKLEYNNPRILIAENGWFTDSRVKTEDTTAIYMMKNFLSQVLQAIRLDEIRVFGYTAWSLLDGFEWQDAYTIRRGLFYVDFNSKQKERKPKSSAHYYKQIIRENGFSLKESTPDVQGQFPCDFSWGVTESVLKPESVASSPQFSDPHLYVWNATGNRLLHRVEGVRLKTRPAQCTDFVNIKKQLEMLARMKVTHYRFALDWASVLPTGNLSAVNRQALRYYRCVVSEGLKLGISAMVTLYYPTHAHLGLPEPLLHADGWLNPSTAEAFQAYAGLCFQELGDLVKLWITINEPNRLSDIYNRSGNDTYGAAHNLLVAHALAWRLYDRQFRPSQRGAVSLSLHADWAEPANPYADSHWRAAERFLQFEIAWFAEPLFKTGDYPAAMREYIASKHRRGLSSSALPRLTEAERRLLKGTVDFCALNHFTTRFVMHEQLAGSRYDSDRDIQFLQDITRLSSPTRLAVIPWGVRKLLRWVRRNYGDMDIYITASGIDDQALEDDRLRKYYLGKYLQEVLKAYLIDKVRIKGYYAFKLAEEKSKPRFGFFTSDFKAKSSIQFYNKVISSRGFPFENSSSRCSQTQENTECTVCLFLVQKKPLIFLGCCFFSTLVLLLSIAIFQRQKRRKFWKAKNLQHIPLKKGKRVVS
Assay: cell-based or functional assay

in vitro activity (ERK phosphorylation in HEK293 cells overexpressing human β-klotho), relative to DFD1 and RGE (Amgen): 2 times
B1: Fc-FGF21 (Lilly) (Fc fusion)
chain: [gap - human IgG4 Fc with S228P F234A L235A (EU numbers)]GGGGSGGGGSGGGGSAHPIPDSSPLLQFGGQVRQRYLYTDDAQQTECHLEIREDGTVGCAADQSPESLLQLKALKPGVIQILGVKTSRFLCQRPDGALYGSLHFDPEACSFREDLKEDGYNVYQSEAHGLPLHLPGDKSPHRKPAPRGPARFLPLPGLPPALPEPPGILAPQPPDVGSSDPLRLVEPSQLRSPSFE
